Test results: the BET-seq Pho4 binding data (Le et al. 2018)
Some of the results follow. These are noisy estimates, calculated here from bound and input reads.

The sequences below were run against T1, Pho4 (S. cerevisiae) (UniProt P07270) (assay: relative binding free energy (BET-seq); higher = weaker binding). Settings: reference: library average.
T1 sequence: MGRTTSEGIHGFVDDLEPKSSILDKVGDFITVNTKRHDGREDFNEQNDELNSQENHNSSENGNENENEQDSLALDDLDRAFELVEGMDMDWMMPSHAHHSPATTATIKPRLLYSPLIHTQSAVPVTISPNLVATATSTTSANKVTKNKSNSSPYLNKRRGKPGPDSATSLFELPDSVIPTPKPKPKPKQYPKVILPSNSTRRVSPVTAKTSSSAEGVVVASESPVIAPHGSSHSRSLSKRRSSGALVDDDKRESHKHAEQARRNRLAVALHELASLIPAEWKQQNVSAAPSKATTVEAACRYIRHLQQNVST

Sequence	relative binding free energy [kJ/mol]
TTGTACACGTGCTTTG	0.251
TAGTGCACGTGGGTTG	-0.711
TTGAACACGTGGGATG	-0.293
TACTTCACGTGGGCTT	0.795
GAAGTCACGTGCGGGT	0.586
CTTGTCACGTGCGTGA	0.209
TGGACCACGTGTGTGT	0.0837
TCTGTCACGTGGTGAC	0.418
TGGTTCACGTGAGCGT	1.13
TAAGACACGTGTGTAT	-0.0837
TGGTTCACGTGGCCGT	0.377
TGTTACACGTGTCGTT	1.13
GTAGGCACGTGTTTTG	-0.126
AGAGGCACGTGAAGCG	0.209
TTTTACACGTGGGTAT	0.251
GGGGGCACGTGGCACA	-0.962
TTTGGCACGTGGGAGT	-0.586
ATGCGCACGTGTGTAT	-0.586
TGGAACACGTGAGTAG	1.26
GGTTCCACGTGAGTTT	1.76
TTAGTCACGTGGGAAC	0.669

Sequence	relative binding free energy [kJ/mol]
GGTTTCACGTGTTCAT	1.59
AGGAGCACGTGGCAGG	-1.17
AGGGTCACGTGATCAT	0.837
GGGTACACGTGTGTGC	0.293
TCGGCCACGTGGAGTG	-0.335
GCTGGCACGTGATGGC	0.586
GTTCGCACGTGTGCTT	0.167
ATGAGCACGTGACTGT	0.251
TGAGGCACGTGGATCT	0
AAGTGCACGTGGGGTC	-0.251
ATAAGCACGTGGATGT	-0.502
CGTGGCACGTGTCGTA	-0.0837
CAGTGCACGTGGTTAA	-0.0837
CTGTTCACGTGATATT	1.72
AGTGGCACGTGTGGCC	-0.418
GTGTTCACGTGCGGCG	0.92
TCTTACACGTGTGAGT	0.795
TTTTGCACGTGTGTCA	0.209
ACTAGCACGTGTGAGT	0.46
CGTGTCACGTGGGGGG	-0.167
TCTATCACGTGTGAGT	0.879

Sequence	relative binding free energy [kJ/mol]
CACTGCACGTGTGGGG	-0.335
ACTATCACGTGGTTTT	0.962
AAGTGCACGTGTGTCG	0.0837
AGGGTCACGTGTACAA	0.628
GCATGCACGTGGTGCG	-0.46
ACATTCACGTGGGGCG	0.837
GTTAACACGTGGTTAT	-0.335
GGTGGCACGTGAGGTC	0.46
CGTGACACGTGAGGCT	0.628
CTGGTCACGTGGAGGT	0.167
AGTGACACGTGAGAGG	0.711
CTTGGCACGTGGGGTC	-1.3
CGTCACACGTGGTGTG	-0.962
TATAACACGTGTTGCG	-0.209
TTTGGCACGTGTCGCA	-0.586
ACAGTCACGTGGGATA	0.209
GGGGGCACGTGTCCTT	-0.46
GAGTTCACGTGGTGGG	1.21
GGTACCACGTGGGGGA	-0.962
TTTTTCACGTGGCCTG	1.05
CTTTTCACGTGGTCAG	0.837
